From the supplement of paper PMC10681739
Over roughly 2,700 sequences, “arbitrary fluorescence units” has its median near 4,100; the highest 2% begin near 54,000. This is one part of the list.

Molecular target: T1, ETS1 (UniProt P14921)
T1 sequence: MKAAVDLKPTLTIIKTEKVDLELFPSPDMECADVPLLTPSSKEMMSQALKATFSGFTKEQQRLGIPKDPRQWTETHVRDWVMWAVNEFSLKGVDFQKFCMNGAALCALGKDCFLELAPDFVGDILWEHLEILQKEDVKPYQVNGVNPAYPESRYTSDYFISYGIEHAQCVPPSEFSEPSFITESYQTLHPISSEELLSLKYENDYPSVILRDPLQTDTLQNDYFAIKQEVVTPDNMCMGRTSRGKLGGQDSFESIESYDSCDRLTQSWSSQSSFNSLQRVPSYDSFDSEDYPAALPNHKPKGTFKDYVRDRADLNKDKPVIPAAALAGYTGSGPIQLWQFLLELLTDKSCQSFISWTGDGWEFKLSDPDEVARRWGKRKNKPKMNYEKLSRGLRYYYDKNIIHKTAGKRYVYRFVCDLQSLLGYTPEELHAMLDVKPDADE
Test: ETS1 binding intensity (PBM fluorescence) (arbitrary fluorescence units); higher = stronger binding
Conditions: ETS1 concentration 10 nM
Procedure: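 gcPBM on wild-type 36-bp genomic probes with two neighbouring ETS1 sites (4-24 bp apart). Recombinant human ETS1 (10 nM) was detected with anti-ETS1 antibody fluorescence. Values are medians over 3 replicate spots. The probes sit in constant array flanks that are not printed.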

Sequence | ETS1 binding intensity
AGTGAGGCAGGAAGCAGCAGGGAGGAAGCCACAATG | 3300
TAATCCCAGGAAAATTAGTTACCCTTCCTGTTTACC | 357
GCCTCAGGGTTTCCTGCTTTACTTCCTAAGCTCCCC | 9200
GTTTTCAGTTGCCTTCCGGTTTCCTGCTGTGATAAC | 15800
GGGAGAAGCGCGGAAGCACGGTTTCCTGGGCCTTCG | 1050
CACCGGAAGCCAGAAATGAGCAGAGAGCGGAACCAG | 13900
AATGCAGAGCAGGATGTGGCTTTCCTGCCCCAATTT | 4850
TAACCTTGGCTTCCTTATTTAAAGGAAGTGGCTGTT | 1340
TGCGGACTTCCCCAAACCCAGCTATTTCCTGTCCCT | 6580
CGCGGACCTCTTCCCGTTGCTCTTCCTCCCGCCACA | 1890
ACATTACGGCGGAAGGCTCTGGAGGAAGCAGAAGTG | 232
ACGTGCATCATGGCTTCCTTCCTGTCCCCACACCTG | 3520
CGACTCAGCGCTTCCGGGGAGCGGAAGGGGGAGCGC | 17700
GCCTCCGGGAGGAAGTGGCCAAGTTCCTGTCTTTCT | 7460
CCTACAGGCCACTTCCTGCAGGAAGTGTCTCTCCAG | 17200
TGGTCAGGAAGCTGTTTATCAAGCTGGGGAAGTCTG | 319
GACCGGTGAGCAGGATGTTCGGAAGCAACATGGTCC | 1880
CGCCGCCGGAAGTGCCTGGCCTCACTTCCGGTCAGA | 37200
CGGCGCCGGGACAGGAAGCGGAAAGCAGCAGTGCAG | 6720
GCGCCACAGGAAGAGTGGAGAACAGGAAGCTGAGGG | 2230
GGCCTGTGTGGTTTCCTGCATTTCCGGCAGCTGATC | 18300

Sequence | ETS1 binding intensity
AAGTCAGGAAACAACAGATGCTGGAGAGGATGTGGT | 375
GACTCATTTCCCAGCAACTCCGGGTTTCCTGTAGCC | 883
CGCCCCTTTCCGGGGACGTTTCACCGGATTGGCTGT | 5040
GATGACCTGCCATTTCCCCAGGAAAGCTGAGACCCC | 201
CGAAAGTGGCGTTTCCCGCAGTTCCGGCGGGAGAGC | 1510
TAAACAGCTCTTTTTCCGTTTCCTGATATTGACATA | 1690
AATTATTTCCGCTCCTGCACCTCAGTTTCCGCCTCT | 35000
CTCGCCGGAAATGCGGGCTCTCCTGCCGGAAGCTGC | 11900
ACTCACATCCTGTGCGGGAGGGAGCAGGATGGCACG | 36200
ACAGGTTTGTAGGAAGCGGCATTTCCCAAAAGCAAC | 213
TTCACTTTATCCTGTCCAAAGCAGATCCTGTTTTGG | 1260
CGCGGAGGCCGCTTCCTCTCAGGATGAGGTGGAGAA | 3020
CGCGCCGGAAGTGCCTTGCGCGGCAGAGGAAGCGCA | 23300
AAGCCTGAGACAGGAAGGGAGGAAGCCGAGGTGGCA | 1260
CTGGCAGGAAATGAAAGTGAAGGGCAGGAAGGGGCA | 7980
GGCGGCATCTCGGAAATGCCCGGATGAGACTGCTAA | 352
ACCTTCTTCCGGACTTGCTGCAGGACGGAAGCCGCT | 16500
GCCAGCAAAGGAGGAAGCCCCTTCCGTCGCTCCCAG | 842
TCCCAGGATGCCGTGCACCTTTACCTCAGGATGCGA | 187
CTCATGGCAGTTTCCTCCCACATCCTGCTCAGTAGC | 5180
AAGTACAGGATGCTAGGTGATGCCACATCCTGTTAC | 4980

Sequence | ETS1 binding intensity
AGCTGTCCTTCCGCATGCTCCAAACTTCCTCCTTTG | 2330
CCAGCAACAGGAAGAGCGACAAACTTCCTTGCATCT | 5050
ATGAGCAGGAAGTAGCAAATGCTTCGGATGCCTTCT | 6980
GCTTCGCGGTGCCCGGAAGGAAGCCTTTGAAGAGTA | 925
ACACTGCTTTTCCTGGTAACTTACTTCCTCCATAGT | 1430
GAGAACCGGATGAGGGCTTCACATGAGGAAGCATGT | 7690
TGGGCTTGCTCACTTCCTCTTCCTGTCGGCTGCAGT | 10400
TGAACCAGGAAGCGGAGTGGCGGGGCTTCCGGCGCC | 3690
TAAGAATGCTTATTTCCTGTTTCCTGGGGCCTACAC | 23800
TCAGATGAGGAAGTGGGCTGGGGAGGAAGAGGCAGA | 1110
TTCCACGGAAACGGCTTTGGCACCACCGGAAGTCAG | 5660
GGGCTCACTTCCTCCTTTTCAGGCAGGAAAAGCAGA | 16800
TGTGATGTTTCCTCTTGCTGTGGTTTCCTGTCATGG | 4090
ACACAGGAAAGCAGATGTGTTCTGGCCGGAAGTTGA | 2410
ACATGCCCCACGGGATGTAGGGATGTGTGTGAACTG | 172
TGCATAATTCTTCCTGTCAGATTTCCTTTTCTGTAA | 5410
CCCGGCGGCGACGGAAAATCTTCCGGACGACCGGCA | 267
TGTTTTCCTGGGGAGTTCACACTGATGAGGATGTGC | 1920
AAAGAAAACAGGATGGGCAGCCAGGAAGATTTTTTT | 460
GCTGCAATGATTTCCTCTGTGTTTCCTTTGGCTACA | 3440
GCCTGGTACTTCCCAGCTACTCAGGAAGCTGAGGTG | 433
